Measurements: publication PMC6919601, “Identification of Plasmodium dipeptidyl aminopeptidase allosteric inhibitors by high throughput screening” (PLoS ONE, 2019)
Values joined by “and” are separate entries in the source; they are usually repeats but may differ in a detail not shown here. Equal entries are not always repeated. About 230 (0.21%) of roughly 110,000 compounds showed an effect of 50% or more. Some of the results follow.

Biological target: DPAP1 (Plasmodium falciparum, UniProt Q8IIJ9)
Experiment: primary screen, percent inhibition; read by cleavage of a fluorogenic dipeptide substrate; higher = more effect of the substance
Design: species or system P. falciparum D10 trophozoite lysates; single well
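Also: 30 min substrate incubation versus DMSO and 10 µM JCP410 controls.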

Chain of DPAP1 (Q8IIJ9 whole entry, looked up): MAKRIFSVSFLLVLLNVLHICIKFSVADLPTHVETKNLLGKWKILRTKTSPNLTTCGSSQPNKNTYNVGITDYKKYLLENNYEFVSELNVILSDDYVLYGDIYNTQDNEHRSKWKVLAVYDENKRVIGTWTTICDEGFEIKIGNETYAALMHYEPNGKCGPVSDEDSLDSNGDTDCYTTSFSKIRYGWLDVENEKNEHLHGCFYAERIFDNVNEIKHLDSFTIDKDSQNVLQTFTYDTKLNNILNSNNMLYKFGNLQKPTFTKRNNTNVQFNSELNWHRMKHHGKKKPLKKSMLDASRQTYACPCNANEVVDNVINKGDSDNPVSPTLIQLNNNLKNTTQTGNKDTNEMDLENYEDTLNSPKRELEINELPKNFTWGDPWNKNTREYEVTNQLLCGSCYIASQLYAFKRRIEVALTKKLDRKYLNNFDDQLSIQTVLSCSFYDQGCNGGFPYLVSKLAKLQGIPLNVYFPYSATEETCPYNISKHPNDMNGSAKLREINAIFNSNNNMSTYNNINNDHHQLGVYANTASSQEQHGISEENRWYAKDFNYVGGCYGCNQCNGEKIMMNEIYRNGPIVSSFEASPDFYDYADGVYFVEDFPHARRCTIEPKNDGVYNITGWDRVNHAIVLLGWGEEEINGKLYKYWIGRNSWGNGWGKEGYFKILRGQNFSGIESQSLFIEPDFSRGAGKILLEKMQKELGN

Structure (SMILES) | % Inhibition @ 10 uM
Cc1ccc(S(=O)(=O)NCC2CC3c4ccccc4C2c2ccccc23)cc1 (stereo not shown) | -3.07%
CC(C)CCNc1nn2nnnc2c2ccccc12 | -3.18%
CCc1c(C=O)[nH]c(C(=O)OCc2ccccc2)c1C | 4.42%
Cn1c(=O)c2c(nc3n(CCCO)c(C45CC6CC(CC(C6)C4)C5)cn23)n(C)c1=O | -4.76%
c1ccc(CNc2nn3cnnc3c3ccccc23)cc1 | -6.29%
CC(C)N(CCC#N)S(=O)(=O)c1ccccc1 | 0.035%
CC(C)OCCCNC(=O)C1CCC(CNS(=O)(=O)c2ccc(Cl)cc2)CC1 (stereo not shown) | 3.93%
COc1ccccc1C(=O)n1nc(-c2cccnc2)nc1N | 0.628%
COc1ccc(Cl)cc1-n1c(C)cc(/C=C2\C(=N)N3N=C(N4CCOCC4)SC3=NC2=O)c1C | 1.72%
O=C(O)COc1ccc(Oc2ccc(Cl)cc2)cc1 | 0.992%
COc1ccc(CCN/C=C2\CC(=O)NC2=O)cc1OC | 17.1%
CN1CCN(C(=O)c2cc(-c3ccc4c(c3)OCO4)nc3ccccc23)CC1 | 0.389%
Cc1cc(C)nc(SCC(=O)NCc2cc(-c3nn(C)c(=O)c4ccccc34)ccc2C)n1 | -2.98%
CCC(=O)Nc1nc2c(s1)C(=O)CC(c1ccccc1)C2 (stereo not shown) | -1.29%
C=Cc1ccc(Cn2c(C(=O)O)c(CNCCC3=CCCCC3)c3ccc(C)cc32)cc1 | 1.59%
CCOC(=O)c1sc2nc(N)c(C#N)c(-c3ccccc3)c2c1N | 3.96%
COCCN1C(=O)c2oc3ccccc3c(=O)c2C1c1ccc(OC)c(OC)c1 (stereo not shown) | -2.91%
COc1ccc(C(O)c2nc3ccccc3n2C)cc1 (stereo not shown) | -2.2%
CC1(C)Cc2c(sc(NC(=O)Nc3ccccc3)c2C(N)=O)CO1 | -2.21%
Nc1nnc(SCC(=O)n2c3ccccc3c3ccccc32)s1 | 7.73%
CCOc1ccccc1C(=O)N1CCN(Cc2ccccc2)CC1 | 3.53%
CCCOc1ccc(CC(=O)Nc2ccc(Br)cc2)cc1OC | 5.31%
Cc1nccn1CCCNC(=O)COc1ccc(Br)cc1 | -3.47%
CC(=O)c1cc(-c2ccccc2)[nH]c1N1CCOCC1 | -4.93%
Cc1cc(C)nc(NS(=O)(=O)c2ccc(NC(=S)NC(=O)/C=C/c3ccccc3)cc2)n1 | -5.33%

Structure (SMILES) | % Inhibition @ 10 uM
CC(C)N1CNc2nc3ccccc3n2C1 | -1.33%
CCOc1ccc(C(=O)Nc2ccc(C)c(Cl)c2)cc1 | -8.95%
CCCc1nn2c(=O)cc(CSc3nc4ccccc4s3)nc2s1 | 1.15%
CC(=O)c1cccc(NC(=O)C(Sc2ccccc2)c2ccccc2)c1 (stereo not shown) | 2.74%
COc1ccccc1CNC(=O)c1ccc2c(c1)ncn2C1CCCC1 | -1.34%
O=C1c2ccccc2C(=O)c2c1cc(NC1CCCCC1)c1nsnc21 | 4.16%
CCC(C(=O)Nc1nc2nc(C)cc(C)n2n1)c1ccccc1 (stereo not shown) | 8.16%
Cc1cccc(NC(=O)COc2ccc(C3C4=C(CCCC4=O)OC4=C3C(=O)CCC4)cc2Cl)c1 | -0.661%
COc1cc2c(C(=O)NC3CCCCC3)cn(CC(C)C)c(=O)c2cc1OC | -7.33%
CCn1c(SCC(=O)NCc2ccccc2)nnc1-c1nonc1N | 4.33%
O=c1c2cnn(-c3ccccc3)c2ncn1Cc1c(F)cccc1Cl | -3.75%
COC(=O)c1cccc(S(=O)(=O)N2CCCCC2)c1 | -0.856%
CCOC(=O)c1ccc2c(c1)sc1nc(-c3ccccc3)cn12 | 3.39%
COc1ccc(C(=O)N2CCN(c3ccc(N4CCOCC4)nn3)CC2)cc1 | -3.45%
CC(Cc1c[nH]c2ccccc12)N1C(=O)CCC1=O (stereo not shown) | 5.02%
CCc1c(C(=O)N2N=C(C(F)F)CC2(O)C(F)F)csc1C (stereo not shown) | -1.63%
COc1ccc(N2C(=O)CC(NC3CCN(Cc4ccccc4)CC3)C2=O)cc1 (stereo not shown) | 5.97%
CCCCNC(=O)c1c(Cl)nc(C)c(Cl)c1C | 2.8%
CCCC(=O)Nc1nnc(S(=O)(=O)N(CC)CC)s1 | 0.00665%
CCOc1ccc(Oc2nc(N(C)C)nc(N3CCCC3)n2)nn1 | 2.05%
COc1ccc2[nH]c3c(=O)n(CCCCCC(=O)NCCCN4CCCCC4)c(=S)[nH]c3c2c1 | 30.2%
NC(=O)C1CCN(S(=O)(=O)c2ccc3nc(O)ccc3c2)CC1 | -2.7%
COc1ccc(CC(=O)Nc2cccc3c2CCCC3)cc1 | 3.74%
CNc1ccc(Nc2ccc(C)cc2)c2c1C(=O)c1ccccc1C2=O | -2%
O=C(C1CCCCC1)N1CC(=O)N(CCc2ccccc2)C(=O)C1 | -1.69%

Structure (SMILES) | % Inhibition @ 10 uM
CN(C(=O)COCc1cc(-c2ccc(F)cc2)on1)C1CCCCC1 | 5.05%
Cn1c(=O)c2ncn(CC(=O)Nc3ccccc3C(F)(F)F)c2n(C)c1=O | -11.7%
Cc1ccccc1CSCc1ccc(C(=O)NCc2cccnc2)o1 | 1.62%
Cc1c(Br)c(C(F)(F)F)nn1CC(=O)NCc1ccccc1 | 2.65%
O=C(Nc1ccc(Cl)nc1)c1ccc(Oc2ccccc2)cc1 | -4.49%
O=C(COc1ccc(Br)cc1)N1CCN(c2ccccc2F)CC1 | -11.1%
COc1ccc(N(CC(=O)Nc2ccc(C)c(Cl)c2)S(C)(=O)=O)c(OC)c1 | -5.67%
CC(C)NC(=O)CCCc1cn(Cc2ccc(F)cc2)c2ccccc12 | -0.0401%
N#CC1=C(N)Oc2[nH]nc(-c3ccccc3Cl)c2C1c1ccc(F)cc1 (stereo not shown) | 1.03%
COC(=O)c1cc2c(=O)n3cccc(C)c3nc2n(C2CCCCC2)c1=N | 0.279%
Cc1ccc(-c2[nH]nc3c2C(c2ccc(N4CCOCC4)cc2)C(C#N)=C(N)O3)cc1 (stereo not shown) | -2.83%
CC1=C(C(=O)OCC2CCCCC2)C(c2ccc(Cl)cc2Cl)NC(=O)N1 (stereo not shown) | 2.92%
C=CCN(CC=C)Cc1c(O)ccc2oc(C)c(C(=O)NC3CCCCC3)c12 | 2.14%
CCOC(=O)c1c(NC(=O)CN(CC)CC)sc2c1CCCC2 | -1.29%
CCCCNC(=O)Cn1nc(-c2ccccc2)ccc1=O | -3.22%
CC1CC(C)CN(C(=O)CN2N=C(c3ccccc3)CCC2=O)C1 (stereo not shown) | 5.35%
CN1C(=O)/C(=C\c2ccc(C(=O)O)cc2)S/C1=N\c1ccccc1 | 4.96%
CC(=O)Nc1ccc(N2C(=O)C3C4c5ccccc5C(c5ccccc54)C3C2=O)cc1 (stereo not shown) | -4.96%
CCCCNC(=O)CNC(=S)N(Cc1cc(OC)c(OC)c(OC)c1)C1CCCC1 | -0.406%
Cc1cc(C)c(S(=O)(=O)NCC(=O)Nc2ccc(C)c(C)c2)c(C)c1 | -4.82%
CSc1nncn1-c1ccccc1 | 2.7%
CC(=O)N1c2ccccc2N=C2CC(C)(C)CC(O)=C2C1c1ccc(OC(C)C)cc1 (stereo not shown) | 5.24%
CCS(=O)(=O)c1nc(S(=O)(=O)c2ccc(Cl)cc2)c(NCC(C)C)s1 | -2.25%
COc1ccc(NC(=O)C(C)Oc2ccccc2)cc1 (stereo not shown) | 0.843%
CC1CCCC(C)N1C(=O)c1cnn2c(C(F)(F)F)cc(-c3cccs3)nc12 (stereo not shown) | -2.8%

Structure (SMILES) | % Inhibition @ 10 uM
Cc1nn(C(=O)CCCCCNC(=O)c2ccccc2)c(C)c1Cl | 1.91%
Cc1ccccc1S(=O)Cc1ccc(C(=O)NCCc2ccc(Cl)cc2)o1 (stereo not shown) | -1.28%
CCN(CC)CC(O)Cn1c2ccc(Cl)cc2c2cc(Cl)ccc21 (stereo not shown) | 1.44%
COc1ccc(C(=O)/C=C2/Sc3cc4c(cc3N2C)OCO4)cc1 | -1.32%
COc1ccc(CNC(=O)C(C)Oc2cccc(Cl)c2)cc1 (stereo not shown) | -0.992%
CC(=O)Nc1ccc(S(=O)(=O)Nc2ccc(S(=O)(=O)N3CCOCC3)cc2)cc1 | -1.57%
CC[C@H](NC(=O)[C@@H](C[C@H](C)c1ccccc1)NC(=O)c1ccc(-c2ccccc2Cl)cc1)C(=O)c1nc2ccccc2o1 | 2.87%
COc1ccc(Br)cc1CNC(=O)C1CCCN(c2nc3ccccc3n3cccc23)C1 (stereo not shown) | 0.0845%
CCCNC(=O)Cn1c(=O)cc(C)c2c(C)nn(-c3ccc(CC)cc3)c21 | 7.35%
COc1cccc(OCCN2CCNCC2)c1 | -0.473%
COc1ccc(OC)c(CNCCc2cccc(F)c2)c1 | 2.36% and -2.09%
CCOc1ccc(-c2cn3c(n2)sc2cc(C(=O)NCc4cccs4)ccc23)cc1 | 5.37%
CCOc1cc(Cl)c(/C=C2\SC(N)=NC2=O)cc1OCC | 0.635%
CN(CCc1ccccn1)CC1CCCCC1 | -6.62%
O=C(Nc1cccc(NC(=O)c2ccncc2)c1)c1ccncc1 | -1.89%
Cc1nn(CC(=O)NCC(C)c2ccccc2)c(=O)c2cc3occc3n12 (stereo not shown) | 6.06%
CCOc1ccc(/C=C/c2nc3ccccc3[nH]2)cc1 | -3.78%
CC/N=C(\S)C1COc2ccccc2O1 (stereo not shown) | 3.96%
Oc1cnnc2ccccc12 | 4.79%
C=CCn1c(SCC(=O)NCCN2CCOCC2)nc2sc(C)c(C)c2c1=O | -0.947%
CCOC(=O)c1cc(CC)sc1NC(=O)CCN1C(=O)c2ccccc2S1(=O)=O | -5.08%
Cc1ccc(NC(=O)c2ccc([N+](=O)[O-])cc2C(=O)O)cc1 | -5.51%
COc1ccccc1-c1cc(C(F)(F)F)nc(S(=O)(=O)CCCC(=O)N2CCOCC2)n1 | 3.54%
Cc1cc(C(=O)N2CCN(S(=O)(=O)c3c(C)nc(O)nc3O)CC2)[nH]n1 | 1.76%
Cc1cccc(N2CCN(C(=O)c3ccoc3C)CC2)c1C | 9.25%
